Patent publication US12479841B2, “Anthelmintic compounds comprising azaindoles structure” (Intervet Inc., priority 2019, dated 2025)

Test system: Ascaridia galli (intestinal roundworm of chicken), larval stage 3
Assay: In vitro assay: Ascaridia galli L3 larvae, minimum effective concentration
Conditions: read-out: MEC (minimum effective concentration) against Ascaridia galli L3, L3 larvae, 20 per well, microscopic examination, concentration at which at least one larva shows mortality, change in motility or development
Text: In Vitro Assay: Ascaridia galli and Oesophagostomum dentatum
Ascaridia galli (intestinal roundworm of chicken), larval stage 3 (“L3”); and Oesophagostomum dentatum (nodular worm of swine), larval stages 3 and 4 (respectively “L3” and “L4”) where suspended in a nutrient medium and distributed to 96 well plates with 20 larvae per well. The wells were spiked with DMSO solutions of the compounds with declining concentration.

Compound	minimal effective concentration
CN(C)c1c(C(=O)NCc2ccccc2)cnc2c1ccn2-c1cc(Cl)cc(Cl)c1 [Compound 9]	≤ 50 µM
O=C(NCc1ccccc1)c1cnc2c(ccn2-c2cccc(Cl)c2Cl)c1N1CCOCC1 [Compound 12]	≤ 50 µM
CN(C)c1c(C(=O)NC2CC(C)(C)Oc3ccccc32)cnc2c1ccn2-c1cccc(Cl)c1Cl (stereo not shown) [Compound 19]	≤ 50 µM
CN(C)c1c(C(=O)N[C@H]2CCOc3ccccc32)cnc2c1ccn2-c1cccc(C(F)(F)F)c1 [Compound 28]	≤ 50 µM
CN(C)c1cccc(-n2ccc3c(N(C)C)c(C(=O)N[C@H]4CCOc5ccccc54)cnc32)c1 [Compound 30]	≤ 50 µM
COc1cccc(-n2ccc3c(N(C)C)c(C(=O)N[C@H]4CCOc5ccccc54)cnc32)c1 [Compound 31]	≤ 50 µM
CN(C)c1c(C(=O)N[C@H]2CCCc3ccccc32)cnc2c1ccn2-c1cc(Cl)cc(Cl)c1 [Compound 34]	≤ 50 µM
CN(C)c1c(C(=O)NC2CC(C)(C)Oc3ccccc32)cnc2c1ccn2-c1cc(Cl)cc(Cl)c1 (stereo not shown) [Compound 38]	≤ 50 µM
CC1(C)CC(NC(=O)c2cnc3c(ccn3-c3cc(Cl)cc(Cl)c3)c2N2CCOCC2)c2ccccc2O1 (stereo not shown) [Compound 39]	≤ 50 µM
CC1(C)CC(NC(=O)c2cnc3c(ccn3-c3cccc(Cl)c3Cl)c2N2CCOCC2)c2ccccc2O1 (stereo not shown) [Compound 40]	≤ 50 µM
CCOc1c(C(=O)N[C@H]2CCOc3ccccc32)cnc2c1ccn2-c1cc(Cl)cc(Cl)c1 [Compound 43]	≤ 50 µM

Test system: Exsheathed L3 larvae of Haemonchus contortus
Assay: In vitro assay: Haemonchus contortus L3 larval motility
Conditions: 168 h, read-out: ED50 value against Haemonchus contortus, exsheathed L3, 300 larvae/well, 7 days incubation, motility reduced by 50% with respect to the positive control (ivermectin)
Procedure: In Vitro Assay: Haemonchus contortus
Solutions of compounds with declining concentrations in DMSO were prepared, diluted with nutrient medium and distributed to 96 well microtiterplates. Exsheathed L3 larvae of Haemonchus contortus were incubated for 20 min at 37° C. in a water bath, separated by centrifugation and added to the wells with 300 Larvae/well. After incubation for 7 days motility was assessed by automated microscopy. Ivermectin was used as positive control, DMSO as negative control and ED50 values were calculated which represent the concentration for an individual compound that reduces motility by 50% with respect to the positive control.

Compound	EC50
O=C(NCc1ccccc1)c1cnc2c(ccn2-c2cccc(Cl)c2Cl)c1N1CCOCC1 [Compound 12]	< 50 µM
Cc1cccc(-n2ccc3c(N(C)C)c(C(=O)N[C@H]4CCOc5ccccc54)cnc32)c1C [Compound 29]	< 50 µM
